# In all, about 310,000 compounds went through this assay and about 2,200 (0.71%) showed an effect of 50% or more. The effect is printed as a negative number. This is one part of the list.
# Target: human ether-à-go-go-related gene (hERG) potassium channel (human, UniProt Q12809)
# Test: primary screen, population patch clamp on CHO cells stably expressing hERG
# human ether-à-go-go-related gene (hERG) potassium channel, sequence (Q12809 whole entry, looked up): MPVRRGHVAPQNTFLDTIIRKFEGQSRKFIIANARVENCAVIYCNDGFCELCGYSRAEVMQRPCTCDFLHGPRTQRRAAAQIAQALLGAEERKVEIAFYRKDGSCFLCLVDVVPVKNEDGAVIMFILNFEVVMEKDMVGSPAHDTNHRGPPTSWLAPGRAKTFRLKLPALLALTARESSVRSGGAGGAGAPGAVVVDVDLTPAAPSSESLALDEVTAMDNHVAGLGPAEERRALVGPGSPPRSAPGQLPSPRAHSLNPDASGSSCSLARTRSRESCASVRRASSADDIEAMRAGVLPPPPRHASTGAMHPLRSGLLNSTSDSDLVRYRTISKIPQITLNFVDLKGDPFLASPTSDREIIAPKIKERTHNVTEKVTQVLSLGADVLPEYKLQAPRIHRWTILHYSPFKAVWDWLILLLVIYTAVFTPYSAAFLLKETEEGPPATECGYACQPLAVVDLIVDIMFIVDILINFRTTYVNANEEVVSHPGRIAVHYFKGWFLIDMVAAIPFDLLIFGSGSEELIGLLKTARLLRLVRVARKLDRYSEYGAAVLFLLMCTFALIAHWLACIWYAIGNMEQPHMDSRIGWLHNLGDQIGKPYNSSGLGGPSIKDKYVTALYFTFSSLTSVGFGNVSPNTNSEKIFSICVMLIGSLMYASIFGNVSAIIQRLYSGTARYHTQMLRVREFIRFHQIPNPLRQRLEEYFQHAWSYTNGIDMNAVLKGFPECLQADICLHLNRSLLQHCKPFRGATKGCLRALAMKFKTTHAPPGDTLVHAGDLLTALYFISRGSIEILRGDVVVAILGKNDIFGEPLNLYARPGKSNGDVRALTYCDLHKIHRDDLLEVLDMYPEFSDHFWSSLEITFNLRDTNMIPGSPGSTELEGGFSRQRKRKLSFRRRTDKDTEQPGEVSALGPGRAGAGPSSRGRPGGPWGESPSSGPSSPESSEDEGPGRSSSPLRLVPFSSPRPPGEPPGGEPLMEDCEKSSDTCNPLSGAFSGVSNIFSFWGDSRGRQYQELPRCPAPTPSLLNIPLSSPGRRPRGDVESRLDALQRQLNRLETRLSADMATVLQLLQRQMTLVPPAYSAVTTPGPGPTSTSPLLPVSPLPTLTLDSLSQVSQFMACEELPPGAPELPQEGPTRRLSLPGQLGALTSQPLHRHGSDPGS
row,SMILES,"hERG current change (%, negative = inhibition) at 1uM"
1,CCOc1cc(NC(=S)NCCCN2CCOCC2)c(OCC)cc1NC(=O)c1ccc(C)cc1,0.339%
2,COc1ccc(-c2nnc3sc(C4CCCCC4)nn23)cc1OC,-1.38%
3,Cc1cccc2c1cnn2C(=O)Nc1ccccc1Cl,7.27%
4,Cc1cc(C)n2nc(C(=O)OCC(=O)N(C)C3CCS(=O)(=O)C3)nc2n1 (centres unmarked),8.05%
5,COc1cc(NC(=O)c2ccccc2)c(OC)cc1NC(=O)Cc1ccc(C)cc1,12.8%
6,COc1ccccc1/C=C/C=N/n1c(-c2n[nH]c3c2CCC3)n[nH]c1=S,10.7%
7,CCOc1ccc(CNC(=O)CCc2cn(C)c3ccccc23)cc1,15.5%
8,COc1cccc(OC)c1C(=O)Nc1ccc(N2CCCC2)cc1,14.4%
9,O=C(CCC(F)(F)F)N1CCC(CO)(CCc2ccccc2)CC1,13.8%
10,CN(C)CC(C)(C)CNC(=O)C1CCN(Cc2ccccc2O)CC1,11.6%
11,CCOc1ccc(C2NC(=O)C(C#N)=C(S)N2c2ccc(C)cc2)cc1OC (centres unmarked),13.9%
12,COc1ccc(C2(CNC(=O)c3cccs3)CCOCC2)cc1,6.57%
13,CCOc1ccc(NC2=NC(C)(C)N=C(N)N2)cc1,10.1%
14,CC(NC(=O)C(c1ccccc1)c1ccccc1)C(=O)O (centres unmarked),0.939%
15,Oc1ccc2ccccc2c1N=Nc1nccs1,19.1%
16,CCCN(CCC)S(=O)(=O)c1ccc(C(=O)Nc2nnc(COC)o2)cc1,2.61%
17,OCCCc1nc2n(n1)C(c1ccccc1Cl)C=C(c1cccs1)N2 (centres unmarked),3.05%
18,COc1ccc(C(=O)N2CCN=C2SCc2cccnc2)cc1OC,9.25%
19,CCN(C(=O)c1nn(-c2ccc(OC)cc2)c(=O)c2c1c1ccccc1n2C)c1ccc(OC)cc1,11.3%

row,SMILES,"hERG current change (%, negative = inhibition) at 1uM"
1,COc1ccc(/C=C/C(=O)NC2=NCCS2)cc1OC,18.6%
2,CC(C)[C@H](NC(=O)c1ccccc1)C(=O)OCC(=O)N1CCN(C(=O)c2ccco2)CC1,12.4%
3,O=C(Cn1cc([N+](=O)[O-])cn1)Nc1ccc(Cn2cc(Br)cn2)cc1,-4.27%
4,C=C(C)c1cccc(C(C)(C)NC(=O)N2CCOCC2)c1,4.49%
5,O=C(N/N=C/c1ccccn1)c1ccc(NC(=O)c2cccc([N+](=O)[O-])c2)cc1,13.7%
6,COCC(C)(C)COS(N)(=O)=O,3.34%
7,C=Cc1ccc2c(c1)N(C)C(=C)S2.I,5.17%
8,CCOC(=O)N1CCC(NS(=O)(=O)c2ccc3c(c2)C(C)(C)C(=O)N3C)CC1,21.2%
9,COc1ccc(S(=O)(=O)N/N=C\c2ccc([N+](=O)[O-])o2)c(OC)c1,9.82%
10,COc1cc(-c2nc(-c3ccccc3)c(-c3cccs3)[nH]2)cc(OC)c1O,6.13%
11,CC(C)c1ccc(NC(=O)c2ccccc2NC(=O)C2CCCCC2C(=O)O)cc1 (centres unmarked),15.2%
12,CS(=O)(=O)O.Cc1c(C(=O)c2cccc3ccccc23)c2cccc3c2n1[C@H](CN1CCOCC1)CO3,6.41%
13,Cc1ccc(-c2cc(C(=O)Nc3ccc(S(=O)(=O)Nc4onc(C)c4C)cc3)[nH]n2)c(O)c1,-1.84%
14,COCCCn1c(=O)c2sccc2n2c(CCCC(=O)N(C)Cc3ccco3)nnc12,8.6%
15,COc1ccccc1N1CCN(C(=O)c2ccc(NC3=NC4CS(=O)(=O)CC4S3)cc2)CC1 (centres unmarked),7.38%
16,O=C1C2C3CCC(O3)C2C(=O)N1CCO (centres unmarked),6.66%
17,CCc1cccc2c(C(=O)CN3C(=O)NC4(CCCCCC4)C3=O)c[nH]c12,9.9%
18,CCN1CCN(CC(c2ccccc2)c2ccccc2)CC1,-0.532%
19,NC(=O)C1C(c2ccccc2)=C1c1ccccc1,18.3%

row,SMILES,"hERG current change (%, negative = inhibition) at 1uM"
1,Cc1ccc(-c2nc(NCc3ccco3)n(S(C)(=O)=O)n2)cc1,3.19%
2,CCC(=O)Nc1ccc(NC(=O)CSc2nnc(-c3ccco3)n2C)cc1,5.39%
3,Cc1nc(NC(=O)C2CC2)sc1C(=O)NC1CCCCC1,16.1%
4,COc1cc(C)nc(N(Cc2ccccc2)S(=O)(=O)c2ccccc2)n1,7.16%
5,Cc1ccc(C(=O)C[n+]2cccc3ccccc32)cc1.[Br-],7.24%
6,CS(=O)(=O)Nc1ccc(C(=O)Nc2ccccc2-c2ccccc2)cc1,-25.7%
7,CCOc1ncccc1C(=O)Nc1cccc(-c2nnc3n2CCCCC3)c1,-16.4%
8,CCOC(=O)CCNC(=O)N1CCCC(CCC(=O)N(C)CCc2ccccn2)C1 (centres unmarked),-11.3%
9,O=C(Nc1cccc(C(=O)O)c1)/C(=C/c1cccc([N+](=O)[O-])c1)NC(=O)c1cccc(Br)c1,12.4%
10,CCOc1ccc(Nc2oc(-c3cccs3)nc2C#N)cc1,4.54%
11,CN=C1SC(CC(=O)Nc2cccc(Cl)c2Cl)C(=O)N1C (centres unmarked),1.48%
12,CCOc1ccc(-c2nnn(CC(=O)Nc3cc(OC)ccc3OC)n2)cc1OCC,8.07%
13,NC(=O)c1ccc(NC(=O)COC(=O)/C=C/c2cccs2)cc1,17.8%
14,O=c1[nH]c2ccccc2cc1CN(CC1CCCO1)S(=O)(=O)c1ccc(Cl)cc1 (centres unmarked),-41.4%
15,CC1=C(C(N)=O)C(c2ccc(Cl)cc2)n2nc(CCCO)nc2N1 (centres unmarked),16.3%
16,COc1cccc(CNn2cnnc2)c1O,6.69%
17,Cc1c(NC(=O)C(C)OC(=O)c2nc(Cl)ccc2Cl)c(=O)n(-c2ccccc2)n1C (centres unmarked),9.24%
18,O=C(O)C1CCCCC1C(=O)Nc1ccccc1C(=O)N1CCN(c2ccc(F)cc2)CC1 (centres unmarked),-1.35%

# Source: publication PMC4336329 (PLoS ONE, 2015)
